# Measured values published in the supplement of paper PMC8728848.
# The list shows a part of the results.
# B1: Epa15 (Candida glabrata) (protein)
# chain: MGSSHHHHHHSSGLVPRGSHMASDPTTFPLGCSPEFTKTKKGLSMELYRYDYLPPGSYPCWDSAYLNPSYPRTGYKAKKLIATVDGVSGDINFKFNPKFGCKAIPDYLPSNFNYHEPITITNFTMILYGYFMPKTTAFHTFYVTADDLLFMNFGAGNAFDCCRREETADKFGNYAAYSVWGKKSLKNELTVYLHTGVYYPIRLFYNNRDYIAQLDIRFKTEHSNAIITNFTDYFYSVDDSSLGCPGLI
# Experiments:
# Assay in all cases: glycan array binding signal (z-score within array); higher = stronger binding
# Conditions in all cases: glycan notation: IUPAC condensed, linker removed
# [1] = target: Neu5Ac(a2-6)Gal(b1-4)GlcNAc(b1-2)Man(a1-3)[Man(a1-6)]Man(b1-4)GlcNAc(b1-4)GlcNAc
# Method in brief: (§1)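 The binding signal is a Z-score computed within each array and averaged over linkers. Arrays of the same protein sequence at different concentrations or buffers were also averaged together. Data originate from 3228 arrays in the Consortium for Functional Glycomics database, kept only where the protein sequence was available.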
# [2] = target: Neu5Ac(a2-6)Gal(b1-4)GlcNAc(b1-2)Man(a1-3)[Neu5Ac(a2-3)Gal(b1-4)GlcNAc(b1-2)Man(a1-6)]Man(b1-4)GlcNAc(b1-4)GlcNAc
# Method in brief: as §1
# [3] = target: Neu5Ac(a2-6)Gal(b1-4)GlcNAc(b1-2)Man(a1-3)[Neu5Ac(a2-6)Gal(b1-4)GlcNAc(b1-2)Man(a1-6)]Man(b1-4)GlcNAc(b1-4)GlcNAc
# Method in brief: as §1
# [4] = target: Neu5Ac(a2-6)Gal(b1-4)GlcNAc(b1-2)Man(a1-3)[Neu5Ac(a2-6)Gal(b1-4)GlcNAc(b1-2)Man(a1-6)]Man(b1-4)GlcNAc(b1-4)[Fuc(a1-6)]GlcNAc
# Method in brief: as §1
# [5] = target: Neu5Ac(a2-6)Gal(b1-4)GlcNAc(b1-2)Man(a1-6)Man(b1-4)GlcNAc(b1-4)GlcNAc
# Method in brief: as §1
# [6] = target: Neu5Ac(a2-6)Gal(b1-4)GlcNAc(b1-2)Man(a1-6)[Gal(b1-4)GlcNAc(b1-2)Man(a1-3)]Man(b1-4)GlcNAc(b1-4)GlcNAc
# Method in brief: as §1
# [7] = target: Neu5Ac(a2-6)Gal(b1-4)GlcNAc(b1-2)Man(a1-6)[GlcNAc(b1-2)Man(a1-3)]Man(b1-4)GlcNAc(b1-4)GlcNAc
# Method in brief: as §1
# [8] = target: Neu5Ac(a2-6)Gal(b1-4)GlcNAc(b1-2)Man(a1-6)[Man(a1-3)]Man(b1-4)GlcNAc(b1-4)GlcNAc
# Method in brief: as §1
# [9] = target: Neu5Ac(a2-6)Gal(b1-4)GlcNAc(b1-2)[Neu5Ac(a2-6)Gal(b1-4)GlcNAc(b1-4)]Man(a1-3)[GlcNAc(b1-4)][Neu5Ac(a2-6)Gal(b1-4)GlcNAc(b1-2)[Neu5Ac(a2-6)Gal(b1-4)GlcNAc(b1-6)]Man(a1-6)]Man(b1-4)GlcNAc(b1-4)GlcNAc
# Method in brief: as §1
# [10] = target: Neu5Ac(a2-6)Gal(b1-4)GlcNAc(b1-2)[Neu5Ac(a2-6)Gal(b1-4)GlcNAc(b1-4)]Man(a1-3)[GlcNAc(b1-4)][Neu5Ac(a2-6)Gal(b1-4)GlcNAc(b1-4)Man(a1-6)]Man(b1-4)GlcNAc(b1-4)GlcNAc
# Method in brief: as §1
# [11] = target: Neu5Ac(a2-6)Gal(b1-4)GlcNAc(b1-2)[Neu5Ac(a2-6)Gal(b1-4)GlcNAc(b1-6)]Man(a1-6)[Neu5Ac(a2-6)Gal(b1-4)GlcNAc(b1-2)Man(a1-3)][GlcNAc(b1-4)]Man(b1-4)GlcNAc(b1-4)GlcNAc
# Method in brief: as §1
# [12] = target: Neu5Ac(a2-6)Gal(b1-4)GlcNAc(b1-3)Gal(b1-3)GlcNAc
# Method in brief: as §1
# [13] = target: Neu5Ac(a2-6)Gal(b1-4)GlcNAc(b1-3)Gal(b1-4)GlcNAc
# Method in brief: as §1
# [14] = target: Neu5Ac(a2-6)Gal(b1-4)GlcNAc(b1-3)Gal(b1-4)GlcNAc(b1-2)Man(a1-3)[Neu5Ac(a2-6)Gal(b1-4)GlcNAc(b1-3)Gal(b1-4)GlcNAc(b1-2)Man(a1-6)]GalNAc
# Method in brief: as §1
# [15] = target: Neu5Ac(a2-6)Gal(b1-4)GlcNAc(b1-3)Gal(b1-4)GlcNAc(b1-3)Gal(b1-4)GlcNAc
# Method in brief: as §1
# [16] = target: Neu5Ac(a2-6)Gal(b1-4)GlcNAc(b1-3)Gal(b1-4)GlcNAc(b1-3)Gal(b1-4)GlcNAc(b1-2)Man(a1-3)[Neu5Ac(a2-6)Gal(b1-4)GlcNAc(b1-3)Gal(b1-4)GlcNAc(b1-3)Gal(b1-4)GlcNAc(b1-2)Man(a1-6)]GalNAc
# Method in brief: as §1
# [17] = target: Neu5Ac(a2-6)Gal(b1-4)GlcNAc(b1-3)Gal(b1-4)GlcNAc(b1-3)GalNAc
# Method in brief: as §1
# [18] = target: Neu5Ac(a2-6)Gal(b1-4)GlcNAc(b1-3)Gal(b1-4)GlcNAc(b1-3)[Neu5Ac(a2-6)Gal(b1-4)GlcNAc(b1-3)Gal(b1-4)GlcNAc(b1-6)]GalNAc
# Method in brief: as §1
# [19] = target: Neu5Ac(a2-6)Gal(b1-4)GlcNAc(b1-3)Gal(b1-4)GlcNAc(b1-6)[Gal(b1-3)]GalNAc
# Method in brief: as §1
# [20] = target: Neu5Ac(a2-6)Gal(b1-4)GlcNAc(b1-3)Gal(b1-4)[Fuc(a1-3)]GlcNAc(b1-3)Gal(b1-4)[Fuc(a1-3)]GlcNAc
# Method in brief: as §1
# [21] = target: Neu5Ac(a2-6)Gal(b1-4)GlcNAc(b1-3)GalNAc
# Method in brief: as §1
# [22] = target: Neu5Ac(a2-6)Gal(b1-4)GlcNAc(b1-3)[Neu5Ac(a2-6)Gal(b1-4)GlcNAc(b1-6)]GalNAc
# Method in brief: as §1
# [23] = target: Neu5Ac(a2-6)Gal(b1-4)GlcNAc(b1-6)GalNAc
# Method in brief: as §1
# [24] = target: Neu5Ac(a2-6)Gal(b1-4)GlcNAc(b1-6)[Gal(b1-3)GlcNAc(b1-3)]Gal(b1-4)Glc
# Method in brief: as §1
# [25] = target: Neu5Ac(a2-6)Gal(b1-4)GlcNAc(b1-6)[Gal(b1-3)]GalNAc
# Method in brief: as §1
# [26] = target: Neu5Ac(a2-6)Gal(b1-4)GlcNAc6S
# Method in brief: as §1
# Neu5Ac(a2-6)GalNAc = target: Neu5Ac(a2-6)GalNAc
# Method in brief: as §1
# [27] = target: Neu5Ac(a2-6)GalNAc(b1-4)GlcNAc
# Method in brief: as §1
# [28] = target: Neu5Ac(a2-6)GalNAc(b1-4)GlcNAc6S
# Method in brief: as §1
# [29] = target: Neu5Ac(a2-6)GlcNAc(b1-4)GlcNAc
# Method in brief: as §1
# [30] = target: Neu5Ac(a2-6)GlcNAc(b1-4)GlcNAc(b1-4)GlcNAc
# Method in brief: as §1
binder,measurement,setting,value
B1,glycan array binding signal (z-score),[1],0.771
same,glycan array binding signal (z-score),[2],-0.227
same,glycan array binding signal (z-score),[3],-0.15
same,glycan array binding signal (z-score),[4],0.757
same,glycan array binding signal (z-score),[5],0.169
same,glycan array binding signal (z-score),[6],0.521
same,glycan array binding signal (z-score),[7],-0.447
same,glycan array binding signal (z-score),[8],-0.221
same,glycan array binding signal (z-score),[9],-0.317
same,glycan array binding signal (z-score),[10],0.519
same,glycan array binding signal (z-score),[11],0.218
same,glycan array binding signal (z-score),[12],-0.125
same,glycan array binding signal (z-score),[13],-0.531
same,glycan array binding signal (z-score),[14],0.185
same,glycan array binding signal (z-score),[15],-0.457
same,glycan array binding signal (z-score),[16],0.771
same,glycan array binding signal (z-score),[17],0.001
same,glycan array binding signal (z-score),[18],0.183
same,glycan array binding signal (z-score),[19],1.45
same,glycan array binding signal (z-score),[20],-0.177
same,glycan array binding signal (z-score),[21],-0.02
same,glycan array binding signal (z-score),[22],1.52
same,glycan array binding signal (z-score),[23],0.323
same,glycan array binding signal (z-score),[24],0.353
same,glycan array binding signal (z-score),[25],0.581
same,glycan array binding signal (z-score),[26],-0.386
same,glycan array binding signal (z-score),Neu5Ac(a2-6)GalNAc,-0.4
same,glycan array binding signal (z-score),[27],-0.546
same,glycan array binding signal (z-score),[28],-0.152
same,glycan array binding signal (z-score),[29],-0.526
same,glycan array binding signal (z-score),[30],-0.583
